Where two headings read alike, the source gives them in different places. Entries with a single value are a further part of the results.
COc1c(N2CC[C@H]([C@@H](C)N)C2)c(F)cc2c(=O)n(N)c(=O)n(C3CC3)c12.Cl [Compound 36]
melting point (prepared by General Method A): 175 to 179 °C
melting point (prepared by General Method E): 215 to 217 °C

Source: patent US7582627B2, “3-aminoquinazolin-2,4-dione antibacterial agents” (Warner-Lambert Company, priority 2000, dated 2009)
